T1: insulin degrading enzyme (IDE) (Rattus norvegicus, UniProt P35559)
T1 construct: purchased Merck 407241-50UG
T1 sequence (P35559 1-1019): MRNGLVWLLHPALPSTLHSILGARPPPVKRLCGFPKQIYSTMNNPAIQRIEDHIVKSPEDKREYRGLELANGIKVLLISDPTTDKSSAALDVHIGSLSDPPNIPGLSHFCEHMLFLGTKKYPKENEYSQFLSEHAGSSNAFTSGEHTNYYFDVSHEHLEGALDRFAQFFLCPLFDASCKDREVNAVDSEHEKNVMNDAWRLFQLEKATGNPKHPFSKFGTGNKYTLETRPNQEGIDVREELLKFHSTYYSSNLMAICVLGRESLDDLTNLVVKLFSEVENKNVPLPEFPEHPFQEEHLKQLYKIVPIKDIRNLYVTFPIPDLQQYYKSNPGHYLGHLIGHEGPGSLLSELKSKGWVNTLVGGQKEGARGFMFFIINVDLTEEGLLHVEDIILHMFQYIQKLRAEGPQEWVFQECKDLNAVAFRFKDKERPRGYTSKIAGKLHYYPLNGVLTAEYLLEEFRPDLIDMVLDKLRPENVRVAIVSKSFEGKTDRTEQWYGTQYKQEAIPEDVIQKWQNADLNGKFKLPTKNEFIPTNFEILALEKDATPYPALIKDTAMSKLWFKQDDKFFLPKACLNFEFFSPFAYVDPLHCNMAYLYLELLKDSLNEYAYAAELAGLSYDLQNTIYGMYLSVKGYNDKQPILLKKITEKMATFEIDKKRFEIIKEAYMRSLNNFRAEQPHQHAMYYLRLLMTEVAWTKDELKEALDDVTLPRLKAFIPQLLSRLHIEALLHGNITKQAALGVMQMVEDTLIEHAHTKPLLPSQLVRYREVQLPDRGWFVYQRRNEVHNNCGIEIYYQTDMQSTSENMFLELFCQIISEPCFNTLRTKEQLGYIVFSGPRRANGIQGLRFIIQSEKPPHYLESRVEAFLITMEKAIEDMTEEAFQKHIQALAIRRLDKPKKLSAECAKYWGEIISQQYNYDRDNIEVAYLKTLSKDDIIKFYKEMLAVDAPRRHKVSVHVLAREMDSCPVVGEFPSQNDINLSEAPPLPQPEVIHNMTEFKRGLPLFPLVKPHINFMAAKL


Key:
[1] = biological target: T2, neutral endopeptidase (NEP) (Homo sapiens, UniProt P08473); assay: Sensitivity towards proteolytic degradation by NEP (activity on receptor cell line after incubation); format: in vitro ADME; details: 4 hours, 37° C., 0.6 μg/ml NEP
T2 construct: purchased R&D Systems 1182-ZNC

healthy beagle dogs = assay: Hemodynamics in conscious telemetered beagle dogs; format: in vivo, dog
Procedure: The effects of TPP-10992 on cardiovascular and ECG parameters after single subcutaneous administration were assessed in a primary pharmacodynamic study in conscious telemetered beagle dogs.
Telemetry devices (DSI™, USA) were surgically implanted to measure blood pressure as well as heart rate, followed by a recovery period to allow wound closure. On the day of the study, telemetry sensors were activated for continuous hemodynamic measurements. The transmitted signals were collected by telemetry receivers located in the animal facility. All collected data were processed by a data acquisition program and averaged over a predefined period of 12 h. As vehicle for TPP-10992 NaCl (0.9%) was used and doses of 0.1 mg/kg, 0.3 mg/kg and 1.0 mg/kg bodyweight were applied via subcutaneous injection.

[2] = biological target: T1, insulin degrading enzyme (IDE); assay: Sensitivity towards proteolytic degradation by IDE (activity on receptor cell line after incubation); format: in vitro ADME; details: 4 hours, 37° C., 0.6 μg/ml IDE
[3] = Pharmacokinetics after intravenous administration in rat (anti-human IgG ELISA, non-compartmental analysis); format: in vivo; details: intravenous 5 mg/kg
Procedure: Determination of in vivo Pharmacokinetic Parameters Pharmacokinetic parameters of TPP-10992 (SEQ ID NO 76 and SEQ ID NO 66) and TPP-5661 (SEQ ID NO 67 and SEQ ID NO 66) were determined after intravenous administration of 5 mg/kg to male Wistar rats (n=3). TPP-10992 and TPP-5661 were given as a bolus injection via the tail vein. Blood samples were collected from the jugular vein via previously implanted catheters in time intervals up to 14 days (336 hours). Generated EDTA-plasma was stored at −20° C. until further analysis.
The quantification of TPP-10992 and TPP-5661 in plasma samples was performed employing an anti-human IgG ELISA (enzyme-linked immunosorbent assay) format. Pharmacokinetic parameters were calculated from plasma concentration time profiles using non-compartmental data analysis.

[4] = system: spontaneously hypertensive rats; assay: Blood pressure by radiotelemetry in conscious spontaneously hypertensive rats; format: in vivo, rat; details: intraperitoneal, 30 mg/kg
Procedure: Female spontaneously hypertensive rats (SHR/N Crl BR, Charles River) with a body weight of 210-300 g were used for these studies. All animals were housed in individual cages at 22-24° C. ambient temperature and maintained on a 12-hour light/dark cycle with free access to standard laboratory rat chow and water ad libitum. Telemeter (HD-10, DSI) implantation was performed a minimum of 14 days before animals were used for blood pressure measurements. Surgery was performed under aseptic conditions. After shaving the abdominal wall, a midline abdominal incision was made, and the fluid-filled sensor catheter was inserted upstream into the exposed descending aorta between the iliac bifurcation and the renal arteries. According to the DSI guidelines the tip of the telemetric catheter was located caudal to the renal arteries and secured by tissue adhesive. The transmitter body was affixed to the inner peritoneal wall before closure of the abdomen. For postsurgical protection against infections and pain a single dosage of an antibiotic (Oxytetracyclin® 10%, 60 mg/kg s.c., 0.06 ml/100 g body weight, Beta-Pharma GmbH & Co, Germany) and analgesic were injected (Rimadyl®, 4 mg/kg s.c., Pfizer, Germany). Telemetric data acquisition was performed by DSI software was predefined to sample hemodynamic data for 10 seconds repeated every 5 minutes. Data collection was started at least 2 hours before drug administration and finished after completion of measurement cycles. Data are expressed as % of basal values±SEM of at least 4 animals per group. The basal value for each animal was calculated as the average of the values measured in two hours prior to substance application (7:00-9:00 AM). Data are then expressed as averages every half hour, starting 15 minutes post application. All animals were treated with a single intraperitoneal (ip) application of test substances dissolved in phosphate buffered saline (PBS). Drug administration took place at 9:00 AM (0 hours).

[5] = system: PE-contracted aortic rings; assay: Vasorelaxation of isolated rat aortic rings contracted by phenylephrine
Procedure: All experiments were conducted in accordance with institutional guidelines and approved by the local committee on animal experiments. Male Sprague-Dawley rats (weighing 250-300 g) were anesthetized with pentobarbital sodium (40 mg/kg i.p.), killed by decapitation, and exsanguinated. The thoracic aorta was excised and placed in ice-cold Krebs buffer of the following composition: 130 mM NaCl, 14.9 mM NaHCO3, 5.5 mM dextrose, 4.7 mM KCl, 1.18 mM KH2PO4, 1.17 mM MgSO47H2O, and 1.6 mM CaCl22H2O. The vessel was pinned in a Sylgard Petri dish filled with chilled Krebs' solution, cleaned of fat and connective tissue, and cut into ring segments of approximately 3 to 4 mm in length. […] Changes in isometric force were recorded using a PowerLab data acquisition system (software Lab Chart 7.0)
After the equilibration period, aortic rings were challenged with 80 mM KCl to check tissue viability. Next, the endothelial integrity of the preparations was determined by verifying the responsiveness to acetylcholine (ACh, 1 μM) in vessels pre-contracted with Phenylephrine (PE, 1 μM). After wash-out and a period of equilibration, Phenylephrine (PE, 1 μM) was used to induce contraction, thereafter natriuretic peptides and natriuretic peptide engrafted IgGs were evaluated for vasorelaxation.

[6] = Pharmacokinetics after intraperitoneal administration in mice (anti-human IgG ELISA); format: in vivo; details: intraperitoneal 5 mg/kg
Procedure: Pharmacokinetic parameters of TPP-12897 were determined after intraperitoneal administration to female Balb/c mice (n=3). Blood samples were collected from 15 minutes up to 72 hours post application. Generated EDTA-plasma was stored at −20° C. until further analysis. The quantification of TPP-12897 in plasma samples was performed by an anti-human IgG (Immunoglobulin G) ELISA format.
Pharmacokinetic parameters were calculated from plasma concentration time profiles using non-compartmental data analysis.

T2 sequence (P08473 whole entry): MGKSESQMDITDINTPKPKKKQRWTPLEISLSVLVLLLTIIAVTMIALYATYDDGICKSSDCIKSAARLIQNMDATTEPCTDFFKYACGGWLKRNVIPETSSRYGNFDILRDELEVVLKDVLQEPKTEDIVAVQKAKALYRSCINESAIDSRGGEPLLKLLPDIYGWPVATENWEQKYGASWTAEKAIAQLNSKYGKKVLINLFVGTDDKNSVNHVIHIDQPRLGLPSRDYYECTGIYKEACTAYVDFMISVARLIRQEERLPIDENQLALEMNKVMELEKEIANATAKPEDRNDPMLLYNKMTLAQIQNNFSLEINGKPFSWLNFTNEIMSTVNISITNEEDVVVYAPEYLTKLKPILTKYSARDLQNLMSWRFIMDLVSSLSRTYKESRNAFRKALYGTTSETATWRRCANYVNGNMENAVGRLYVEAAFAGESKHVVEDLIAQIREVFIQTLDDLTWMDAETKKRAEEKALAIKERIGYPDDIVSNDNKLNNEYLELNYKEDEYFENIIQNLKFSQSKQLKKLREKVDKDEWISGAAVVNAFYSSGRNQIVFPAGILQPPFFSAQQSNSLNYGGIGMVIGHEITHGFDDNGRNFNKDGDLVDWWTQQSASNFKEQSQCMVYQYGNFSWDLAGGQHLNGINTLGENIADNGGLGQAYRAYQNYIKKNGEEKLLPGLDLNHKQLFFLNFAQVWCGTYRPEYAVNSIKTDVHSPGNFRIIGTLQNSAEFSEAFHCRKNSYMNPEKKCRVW

Molecule	sensitivity/resistance to proteolytic degradation by NEP [1]	reduction in blood pressure (healthy beagle dogs; healthy dogs, 0.1, 0.3 and 1.0 mg/kg s.c., significant at 1.0 mg/kg)	effects on heart rate (healthy beagle dogs; healthy dogs, 0.1-1.0 mg/kg s.c.)	duration of reduction in blood pressure (healthy beagle dogs; healthy dogs, single subcutaneous administration) [days]	sensitivity/resistance to proteolytic degradation by IDE [2]	Mean clearance (CL) [3] [mL/day/kg]	terminal half-life (t1/2) [3] [h]	duration of effect on MAP [4]	reduction in mean arterial blood pressure (MAP) [4]	time of maximum effect on MAP post application [4] [h]	vasodilation in PE-contracted aortic rings [5]	Potency (log EC50 values), vasodilation ([5]; endothelium-intact rat aortic rings contracted by phenylephrine (1 μM))	Mean area under the curve (AUC) [6] [µg·h/mL]	terminal half-life (t1/2) [6] [h]
TPP-10992: ANP engrafted antibody, IgG4 isotype of compound 9; SEQ ID NO 76 and SEQ ID NO 66 (antibody, listed as Homo sapiens, NP engrafted HC) heavy: EVQLLESGGGLVQPGGSLRLSCAASGFTFGSGSGSGSGSGSPDGGSGGSLRRSSCFGGRMDRIGAQSGLGCNSFRYGSYGSGSGSGSGSGMSWVRQAPGKGLEWVSAISGSGGSTYYADSVKGRFTISRDNSKNTLYLQMNSLRAEDTAVYYCAKLTGAEYFQHWGQGTLVTVSSASTKGPSVFPLAPCSRSTSESTAALGCLVKDYFPEPVTVSWNSGALTSGVHTFPAVLQSSGLYSLSSVVTVPSSSLGTKTYTCNVDHKPSNTKVDKRV[letters of human IgG4 Fc with S228P (EU numbers) left out] light: QSVLTQPPSVSGAPGQRVTISCTGSSSNIGAGYDVHWYQQLPGTAPKLLIYGNSNRPSGVPDRFSGSKSGTSASLAITGLQAEDEADYYCQSYDSSLSGVVFGGGTKLTVLGQPKAAPSVTLFPPSSEELQANKATLVCLISDFYPGAVTVAWKADSSPVKAGVETTTPSKQSNNKYAASSYLSLTPEQWKSHRSYSCQVTHEGSTVEKTVAPTECS	high resistance	dose-dependent and long-lasting	No effects	> 5	high resistance	6.48	184	greater than 6 days	approximately 20%	48	dose-dependent vasodilation	−6.7		
TPP-12377: CNP engrafted antibody; heavy chain SEQ ID NO 445, light chain SEQ ID NO 66 (antibody, listed as Homo sapiens, NP engrafted HC) heavy: EVQLLESGGGLVQPGGSLRLSCAASGFTFSSYAMSWVRQAPGKGLEWVSAISGSGGSTYYADSVKGRFTISRDNSKNTLYLQMNSLRAEDTAVYYCTSVHQETKKYQSSPYKGANKKGLSKGCFGLKLDRIGSMSGLGCGSGGSGSYSYTYNYEWHVDVWGQGTLVTVSS[letters of human IgG1 constant region left out] light: QSVLTQPPSVSGAPGQRVTISCTGSSSNIGAGYDVHWYQQLPGTAPKLLIYGNSNRPSGVPDRFSGSKSGTSASLAITGLQAEDEADYYCQSYDSSLSGVVFGGGTKLTVLGQPKAAPSVTLFPPSSEELQANKATLVCLISDFYPGAVTVAWKADSSPVKAGVETTTPSKQSNNKYAASSYLSLTPEQWKSHRSYSCQVTHEGSTVEKTVAPTECS	high resistance				high resistance									
TPP-12897: CNP engrafted antibody; heavy chain SEQ ID NO 445, light chain SEQ ID NO 447 (antibody, listed as Homo sapiens, NP engrafted HC) heavy: EVQLLESGGGLVQPGGSLRLSCAASGFTFSSYAMSWVRQAPGKGLEWVSAISGSGGSTYYADSVKGRFTISRDNSKNTLYLQMNSLRAEDTAVYYCTSVHQETKKYQSSPYKGANKKGLSKGCFGLKLDRIGSMSGLGCGSGGSGSYSYTYNYEWHVDVWGQGTLVTVSS[letters of human IgG1 constant region left out] light: QSVLTQPPSVSGAPGQRVTISCTGSSSNIGAGYDVHWYQQLPGTAPKLLIYGNSNRPSGVPDRFSGSKSGTSASLAITGLQAEDEADYYCQSYDSSLDGVVFGGGTKLTVLGQPKAAPSVTLFPPSSEELQANKATLVCLISDFYPGAVTVAWKADSSPVKAGVETTTPSKQSNNKYAASSYLSLTPEQWKSHRSYSCQVTHEGSTVEKTVAPTECS	high resistance				high resistance								7705	194

Source: patent publication US20250236654A1, “C-TYPE NATRIURETIC PEPTIDE ENGRAFTED ANTIBODIES” (Bayer Aktiengesellschaft, priority 2018, published 2025)
